Reference: article PMC4336329 (PLoS ONE, 2015)
In all, about 310,000 compounds went through this assay and about 2,200 (0.71%) showed an effect of 50% or more. The effect is printed as a negative number. Some of the results follow.

What follows are compounds tested against human ether-à-go-go-related gene (hERG) potassium channel (human, UniProt Q12809) (assay: primary screen, population patch clamp on CHO cells stably expressing hERG).
Sequence of human ether-à-go-go-related gene (hERG) potassium channel (Q12809 whole entry, looked up): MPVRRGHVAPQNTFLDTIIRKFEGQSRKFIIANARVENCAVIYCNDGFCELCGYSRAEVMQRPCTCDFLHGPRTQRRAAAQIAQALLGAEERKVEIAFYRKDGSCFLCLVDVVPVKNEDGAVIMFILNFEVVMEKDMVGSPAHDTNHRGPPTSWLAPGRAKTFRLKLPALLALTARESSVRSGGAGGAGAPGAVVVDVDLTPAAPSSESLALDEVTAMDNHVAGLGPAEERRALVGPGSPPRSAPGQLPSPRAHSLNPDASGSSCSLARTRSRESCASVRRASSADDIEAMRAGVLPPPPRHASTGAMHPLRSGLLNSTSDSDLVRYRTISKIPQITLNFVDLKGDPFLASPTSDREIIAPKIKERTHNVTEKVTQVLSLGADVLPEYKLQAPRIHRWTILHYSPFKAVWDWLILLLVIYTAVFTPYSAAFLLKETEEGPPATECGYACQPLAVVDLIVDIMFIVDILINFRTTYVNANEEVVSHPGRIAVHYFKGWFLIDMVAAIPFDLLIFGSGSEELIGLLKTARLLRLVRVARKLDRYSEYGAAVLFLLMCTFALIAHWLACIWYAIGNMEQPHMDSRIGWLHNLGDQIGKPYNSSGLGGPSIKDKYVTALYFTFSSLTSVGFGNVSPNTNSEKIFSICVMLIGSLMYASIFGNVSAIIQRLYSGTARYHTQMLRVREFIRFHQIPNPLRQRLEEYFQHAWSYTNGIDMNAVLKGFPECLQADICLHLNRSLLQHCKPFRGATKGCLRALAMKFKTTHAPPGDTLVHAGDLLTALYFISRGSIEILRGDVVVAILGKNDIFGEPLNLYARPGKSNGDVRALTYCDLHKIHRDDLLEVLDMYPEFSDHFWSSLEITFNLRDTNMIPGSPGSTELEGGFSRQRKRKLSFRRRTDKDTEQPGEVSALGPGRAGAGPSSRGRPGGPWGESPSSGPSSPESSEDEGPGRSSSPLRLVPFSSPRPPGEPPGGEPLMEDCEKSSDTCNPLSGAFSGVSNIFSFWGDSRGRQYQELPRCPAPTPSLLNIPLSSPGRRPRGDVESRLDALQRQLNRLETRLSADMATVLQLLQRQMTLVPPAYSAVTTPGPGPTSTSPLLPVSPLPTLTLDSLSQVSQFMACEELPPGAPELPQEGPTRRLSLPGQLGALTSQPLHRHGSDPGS

Structure (SMILES)	hERG current change (%, negative = inhibition) at 1uM
CCN(CC)CCCNC(=O)Cn1ncc2c(=O)oc3ccc(C)cc3c21	0.584%
O=C(O)CCc1ccc(-c2cccs2)n1NC(=O)c1ccc(Cl)cc1	16.3%
Cc1ccccc1NC(=O)c1ccc(NS(=O)(=O)c2cc(C(C)(C)C)cc(C)c2C)cc1	4.57%
CCCn1c(SCC(=O)OCc2ccccc2)nc2c1c(=O)n(C)c(=O)n2C	3.95%
Cc1cnn(CCC(=O)NNC(=S)Nc2ccccc2)c1	-2.49%
Cl.NC[C@@H]1O[C@H](C23CC4CC(CC(C4)C2)C3)Cc2c1ccc(O)c2O	15%
CC(C)(C)C(=O)Nc1cccc(-c2ncon2)c1	10.8%
N/C(=N\OC(=O)c1ccc(Cl)c(Cl)c1)c1cccnc1	7.02%
NC(=O)N(CCC(=O)O)c1ccccc1	3.33%
Cc1cc(Cl)c(OCCOCCN2CCCC(C)C2)c(Br)c1.O=C(O)C(=O)O (centres unmarked)	-5.23%
CCOC(=O)c1cccc(N2C(=O)C3C(C(=O)NC4CC4)C4(C)C=CC3(O4)C2C(=O)NC(C)(C)C)c1 (centres unmarked)	12.9%
O=C(NCCN1CCN(C(=O)c2ccc(F)cc2)CC1)c1ccc(F)cc1	-32%
Cc1cccc(NC(=O)c2sc3nc(N4CCOCC4)c4c(c3c2N)CCCC4)c1	14.1%
CCOC(=O)CSc1nc2ccccc2c(=O)n1CC1COc2ccccc2O1 (centres unmarked)	6.59%
CCOC(=O)CNC(=O)CCc1nnc2ccc(N3CCC(C)CC3)nn12	7.35%
Cc1cc(C)c(NS(=O)(=O)c2c(C(=O)N3CCOCC3)c(C)n(C)c2C)c(C)c1	4.5%
COCCN(Cc1cc2cc(C)cc(C)c2nc1Cl)C(=O)Nc1ccccc1	-0.791%
COc1ccc(Cl)cc1C(=O)CSc1nnnn1C1CCCCC1	10.1%
CC(C)c1ccc(NC(=O)c2ccc3c(c2)CCN3S(C)(=O)=O)cc1	2.05%
Cc1ccc(S(=O)(=O)N2CCCC2C(=O)Nn2cnnc2)cc1 (centres unmarked)	11.7%
O=C(NC1CCCCCCC1)c1ccc(Br)cc1	10.2%
Cc1[nH]n(-c2ccccc2)c(=O)c1C(=O)Nc1ccccc1	2.94%
Cc1ccc(CCN2CC(C(=O)NCc3ccc4c(c3)OCO4)CC2=O)cc1 (centres unmarked)	-7.27%

Structure (SMILES)	hERG current change (%, negative = inhibition) at 1uM
CC(=O)c1cccc(CN2CCN(CC(C)C)C(CCO)C2)c1 (centres unmarked)	9.75%
CC(C)N=C(Nc1ccccc1)c1cccnc1	-1.56%
Cc1ccc(C23CC4CC(CC(CC(=O)N5CCOCC5)(C4)C2)C3)cc1	-4.13%
CC(=O)c1cccc(NC(=O)C=C(C)C)c1	9.11%
NC(=O)C(c1ccccn1)c1ncc(C(F)(F)F)cc1Cl (centres unmarked)	10.9%
O=CC(Cl)P(=O)(N1CCCCC1)N1CCCCC1 (centres unmarked)	13.6%
COc1ccc(N/N=C(/C(N)=O)C2=NC(C)(C)Cc3ccccc32)cc1	1.37%
Cc1cc(C(=O)N(C2CCCCC2)C2CCCCC2)no1	-3.84%
[O-][n+]1c2c(nn1-c1ccc(Cl)c(Cl)c1)-c1nonc1CC2	11.3%
C=CCN1C(=O)/C(=C\C=C2\N(C)c3ccccc3C2(C)C)SC1=S	-3.41%
O=C(Nc1ncnc2c1CCC2)C12CC3CC(CC(C3)C1)C2	3.21%
O=C1NC(=S)N/C1=C/c1ccc(Oc2ccc(C(F)(F)F)cc2[N+](=O)[O-])c(Cl)c1	-0.0309%
O=C(Nc1cccnc1)c1ccc(-c2ccc(Cl)cc2)o1	9.68%
COCCCNC(=O)c1ccc(CS(=O)(=O)c2cccc(C(F)(F)F)c2)o1	12.3%
O=C(NCCCN1CCCC1)c1ccc2c(c1)N(Cc1ccccc1)CCS2	-41.7%
Cc1cc2ccccn2c1C(=O)c1cccc([N+](=O)[O-])c1	3.87%
CC(=O)N1CCOCCOCCOCC1	10.2%
CCOC(=O)C(CC)n1cnc2c(nnn2-c2ccc(OC)cc2)c1=O (centres unmarked)	-8.12%
CCOc1cc(C(=O)OC(C)C(=O)Nc2ccc(NC(C)=O)cc2)ccc1OCC(=O)N1CCCCC1 (centres unmarked)	8.49%
Cn1c(CNC2CCCCC2)nc2ccccc21	-2.81%
Cc1ccc(N2C(=O)CC(N3CCc4ccccc43)C2=O)cc1Cl (centres unmarked)	2.11%
Cc1ccccc1C1N(c2nccs2)C(=O)C2CCCN21 (centres unmarked)	-6.37%
COc1cc(/C=C2\CCc3c2nc2ccccc2c3C(=O)O)cc(OC)c1OC	5.25%

Structure (SMILES)	hERG current change (%, negative = inhibition) at 1uM
O=C(Cc1ccccc1)Nc1ccc2oc(-c3cccnc3)nc2c1	9.01%
CCOc1ccccc1NC(=O)NC1CCN(CC(=O)Nc2ccc3c(c2)OCCO3)CC1	-2.36%
Cn1c(=O)c2c(SCC(=O)N3CCCc4ccccc43)nc(CC(C)(C)C)nc2n(C)c1=O	-4.66%
O=C(NC1CC1)c1c(O)c2ccccc2[nH]c1=O	11.1%
COC(=O)c1ccc(C2NC(=O)c3c(sc(C)c3C)N2)cc1 (centres unmarked)	11.2%
O=C(C(=O)N1CCN(Cc2ccccc2)CC1)c1c[nH]c2ccccc12	6.86%
CCCCC(=O)NC(Nc1sc2c(c1C(N)=O)CCCC2)(C(=O)OCC)C(F)(F)F (centres unmarked)	11.8%
COc1cc(NC(=O)C(C)Oc2ccccc2)cc(OC)c1 (centres unmarked)	8.32%
CSCCC(NC(=O)c1ccccc1Cl)C(=O)NCCOc1ccccc1 (centres unmarked)	13.1%
CCOc1ccc(NC(=O)/C(C=Nc2ccccc2)=C(\C)O)cc1	14.6%
COc1ccc(N2C(=O)[C@H]3[C@@H](C2=O)C2c4ccccc4C=NN2[C@H]3C(=O)C(C)(C)C)cc1 (some centres unmarked)	12.5%
Cc1nc2ccccc2n1CC(=O)c1ccccc1	9.12%
Cn1c(Cc2ccc(Cl)cc2)nnc1SCC(=O)NC1CC1	0.064%
COC(=O)c1ccccc1S(=O)(=O)N1CCC(NC(=O)c2ccccc2)CC1	12.1%
Cc1ccc(CCc2nnc(SCC(=O)Nc3cccc(Cl)c3)n2-c2ccccc2)o1	-18.3%
NC1=NC[C@@H](Cc2ccc(O)cc2)N1CCc1cccc(F)c1	10.5%
O=C(CCS(=O)(=O)c1cccc2nsnc12)N1CC(=O)N(CCc2ccccc2)C(=O)C1	3.13%
Cc1ccc(Nc2nnc(C3C(=O)N(C)C4(C)CC3c3cc(Br)ccc3O4)s2)cc1 (centres unmarked)	9.37%
COc1cc2c(cc1OC)C(C)N(C(=O)Nc1ccccc1)CC2 (centres unmarked)	11.3%
Cc1cc(Cl)ccc1OCCCC(=O)N1CCN(S(=O)(=O)c2ccccc2)CC1	8.09%
CCC(=O)N1c2ccc(S(=O)(=O)NCc3ccccc3)cc2CC1C (centres unmarked)	11.8%
CCCCCn1c(=O)c(-c2nc3ccccc3[nH]2)c(O)c2ccccc21	12.8%
COc1ccc(C=O)c(OC)c1	10.6%

Structure (SMILES)	hERG current change (%, negative = inhibition) at 1uM
COc1cccc(C(=O)CSc2nnc(-c3cc(OC)c(OC)c(OC)c3)o2)c1	10.2%
Cc1ccc(S(=O)(=O)CNC(=S)c2cccc(Cl)c2)cc1	12.2%
CCOC(=O)C1CCN(Cc2nnc(-c3cccc(Br)c3)o2)CC1	8.65%
CCCCC(C(=O)NC1CCCC1)N(Cc1ccccc1)C(=O)c1snc(C(N)=O)c1N (centres unmarked)	13.6%
O=C(NC(=S)Nc1ccc(S(=O)(=O)Nc2ncccn2)cc1)c1ccc(Br)cc1	11%
O=C(NNc1nccc(C(F)(F)F)n1)Nc1cccc(Cl)c1	9.72%
COCCn1c(N)c(N(Cc2ccccc2)C(=O)COc2ccccc2F)c(=O)[nH]c1=O	11.5%
Cc1ccc(OCC(=O)N(C)CC(=O)Nc2ccccc2Cl)c([N+](=O)[O-])n1	5.77%
CN(C)/C=N/c1nc(-c2ccc3c(c2)OCO3)cs1	7.92%
CCSc1nc2ccccc2n1C(=O)/C=C\c1ccc(OC)c(OC)c1	5.43%
FC(F)(F)c1nnc2ccc(N3CCN(c4ccccc4)CC3)nn12	11.3%
CC(C)=CC(=O)OCC(=O)Nc1cccc([N+](=O)[O-])c1	8.68%
CCC(C)[C@H](NC(=O)NC1CCCc2ccccc21)C(=O)O (some centres unmarked)	15.5%
CCCn1cc(SCC(N)=O)c2ccccc21	0.261%
COCCSc1ccccc1C(=O)N1CCC(Cc2ccccc2)CC1	6.17%
O=[N+]([O-])c1ccc(C=Nc2cccc3ccccc23)s1	7.76%
COc1ccc(N2CCN(C(=O)c3ccccc3NS(=O)(=O)c3ccc(C)cc3)CC2)cc1	12%
CCOc1ccc(CCNC(=O)Nc2ccccc2C)cc1OCC	8.99%
CC(O)CNCc1ccc(-c2ccccc2)cc1.Cl (centres unmarked)	8.01%
COc1ccc(/C=C(/NC(=O)c2ccc(C)cc2)C(=O)N2CCCC2)cc1OC	2.88%
